# Data reported in PubChem BioAssay (Tox21).
# Several values for one entry are separate records, joined by “and”; a condition that tells them apart may be missing. Equal entries are not always repeated. Inconclusive means that the source gave no clear call. Such entries were picked first, then a sample of the others. A potency beside an inconclusive call is a rough fit, not a confirmed value. The source holds several records for some structures; these can differ, active in one and inactive in another. Activity calls are given as the source filed them. Calls come from the whole dose curve; as a rule, active = well fitted curve in the direction sought with a large enough effect in the repeat runs; inconclusive = weak or mixed curves; inactive = no such curve, though single readings can be large; an effect the other way counts as inactive or inconclusive.
# Legend:
# [1] = A CellTox Green Cytotoxicity Assay to monitor cytotoxicity in HepG2 cells - 16 hour (AID 1224876); note: nearly all actives have a fitted effect of over 45% in size
# Procedure, shortened: (§1)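 Continuous culture of HepG2 cells with a membrane-impermeant DNA dye; rising fluorescence marks dead cells. Compound exposure lasted up to 40 h at 37 C, with reads every 8 h from 0 h.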
# [2] = qHTS RealTime-Glo MT Cell Viability Assay in HepG2 cells - 32 hour (AID 1224877); note: nearly all actives have a fitted effect of over 55% in size
# Procedure, shortened: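 Tox21 10K library screened in qHTS format on HepG2 cells carrying RealTime-Glo reagents. Compounds were added after a 5 h preincubation, and the luminescent signal from continuous culture was measured repeatedly during 40 h treatment.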
# [3] = A CellTox Green Cytotoxicity Assay to monitor cytotoxicity in HepG2 cells - 24 hour (AID 1224878); note: nearly all actives have a fitted effect of over 45% in size
# Procedure, shortened: as §1
# [4] = A CellTox Green Cytotoxicity Assay to monitor cytotoxicity in HepG2 cells - 40 hour (AID 1224879); note: nearly all actives have a fitted effect of over 40% in size
# Procedure, shortened: as §1
# [5] = A CellTox Green Cytotoxicity Assay to monitor cytotoxicity in HepG2 cells - 32 hour (AID 1224883); note: nearly all actives have a fitted effect of over 50% in size
# Procedure, shortened: as §1
# [6] = A CellTox Green Cytotoxicity Assay to monitor cytotoxicity in HEK293 cells - 32 hour (AID 1224881); note: nearly all actives have a fitted effect of over 40% in size
# Procedure, shortened: (§2)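 Each value comes from one timepoint of a single continuous run in which HEK293 cells with CellTox Green were exposed to compound for up to 40 h at 37 C, dye fluorescence rising with cell death.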
# [7] = A CellTox Green Cytotoxicity Assay to monitor cytotoxicity in HepG2 cells - 0 hour (AID 1224882); note: nearly all actives have a fitted effect of over 35% in size
# Procedure, shortened: as §1
# [8] = A CellTox Green Cytotoxicity Assay to monitor cytotoxicity in HEK293 cells - 8 hour (AID 1224884); note: nearly all actives have a fitted effect of over 35% in size
# Procedure, shortened: as §2
# [9] = qHTS RealTime-Glo MT Cell Viability Assay in HEK293 cells - 0 hour (AID 1224880); note: nearly all actives have a fitted effect of over 45% in size
# Procedure, shortened: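 qHTS format; HEK293 cells with NanoLuc/prosubstrate reagent, 37 C/5% CO2 for 5 h pre-dosing; compounds 23 nL in DMSO; luminescence at each time point reflects viable cells.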
# Potency is the fitted concentration of half-maximal effect; tags give direction and shape of the fitted curve.
smiles,measurement,setting,value
FC(F)C(F)(F)OCC(Cn1cncn1)c1ccc(Cl)cc1Cl (configuration not stated),Potency,[1],"inconclusive: 38.7 µM [activator, partial curve]"
same,Potency,[2],"inconclusive: 48.7 µM [cytotoxic, partial curve]"
Cc1cc(C(C)(C)c2cc(C)c(O)c(C)c2)cc(C)c1O,Potency,[1],"inconclusive: 53.1 µM [activator, partial curve, poor fit]"
same,Potency,[2],"inconclusive: 59.6 µM [cytotoxic, partial curve, poor fit]"
same,Potency,[3],"inconclusive: 53.1 µM [activator, single point]"
same,Potency,[4],"inconclusive: 47.4 µM [activator, partial curve, poor fit]"
same,Potency,[5],"inconclusive: 47.4 µM [activator, single point]"
O=C(Nc1ccccc1-c1ccc(Cl)cc1)c1cccnc1Cl,Potency,[1],active: 41.2 µM
same,Potency,[4],active: 46.3 µM
same,Potency,[6],"inconclusive: 58.3 µM [activator, single point]"
same,Potency,[7],active: 41.2 µM
same,Potency,[5],active: 46.3 µM
same,Potency,[8],active: 46.3 µM
N#CC(C#N)=NNc1cccc(Cl)c1,Potency,[1],"inconclusive: 61.6 µM [activator, single point]"
same,Potency,[9],active: 38.9 µM
CC(=O)c1cc(C(C)(C)C)cc2c1CCC2(C)C,Potency,[1],"inconclusive: 54.9 µM [activator, partial curve, poor fit]"
same,Potency,[4],"inconclusive: 54.9 µM [activator, single point]"
same,Potency,[5],"inconclusive: 54.9 µM [activator, single point]"
Sc1ccccc1Cl,Potency,[1],"inconclusive: 26.8 µM [activator, single point]"
same,Potency,[3],"inconclusive: 26.8 µM [activator, single point]"
same,Potency,[7],"inconclusive: 21.3 µM [activator, single point]"
same,Potency,[5],"inconclusive: 26.8 µM [activator, single point]"
CSCCCN=C=S,Potency,[1],"inconclusive: 54.9 µM [activator, single point]"
same,Potency,[3],"inconclusive: 54.9 µM [activator, single point]"
same,Potency,[4],"inconclusive: 54.9 µM [activator, single point]"
same,Potency,[5],"inconclusive: 54.9 µM [activator, single point]"
c1ccc(Nc2ccc3ccccc3c2)cc1,Potency,[1],"inconclusive: 54.9 µM [activator, partial curve, poor fit]"
same,Potency,[3],"inconclusive: 48.7 µM [activator, partial curve] and inconclusive: 54.9 µM [activator, single point]"
same,Potency,[4],"inconclusive: 54.9 µM [activator, single point]"
same,Potency,[6],inactive
same,Potency,[5],"inconclusive: 54.9 µM [activator, single point]"
Fc1ccc(C(OCCN2CCN(CCCc3ccccc3)CC2)c2ccc(F)cc2)cc1,Potency,[1],active: 23.9 µM
same,Potency,[5],active: 23.9 µM
CC(Cc1ccc(C(C)(C)C)cc1)CN1C[C@@H](C)O[C@@H](C)C1 (some centres not stated),Potency,[1],"inconclusive: 49 µM [activator, single point]"
same,Potency,[3],"inconclusive: 49 µM [activator, single point]"
same,Potency,[4],"inconclusive: 54.9 µM [activator, single point]"
same,Potency,[6],active: 49 µM
same,Potency,[7],inactive
same,Potency,[8],"inconclusive: 54.9 µM [activator, single point]"
Cc1cccc(Cc2cnc[nH]2)c1C,Potency,[1],"inconclusive: 26.8 µM [activator, single point]"
same,Potency,[4],"inconclusive: 26.8 µM [activator, single point]"
same,Potency,[7],"inconclusive: 26.8 µM [activator, single point]"
CC(C)c1cccc(C(C)C)c1O,Potency,[1],"inconclusive: 54.8 µM [activator, single point]"
same,Potency,[4],"inconclusive: 54.8 µM [activator, single point]"
same,Potency,[5],"inconclusive: 54.8 µM [activator, single point]"
C[C@@H]1CC[C@@]2(OC1)O[C@H]1[C@@H](O)[C@H]3[C@@H]4CC[C@H]5C[C@@H](O[C@@H]6O[C@H](CO)[C@H](O[C@@H]7O[C@H](CO)[C@@H](O)[C@H](O[C@@H]8OC[C@@H](O)[C@H](O)[C@H]8O)[C@H]7O[C@@H]7O[C@H](CO)[C@@H](O)[C@H](O[C@@H]8O[C@H](CO)[C@@H](O)[C@H](O)[C@H]8O)[C@H]7O)[C@H](O)[C@H]6O)[C@H](O)C[C@]5(C)[C@H]4CC[C@]3(C)[C@H]1[C@@H]2C,Potency,[1],active: 13.1 µM
same,Potency,[9],"inconclusive: 7.34 µM [rising, partial curve]"
